# Assay results from PubChem BioAssay AID504832 (National Center for Advancing Translational Sciences (NCATS), 2011).
# Hit rate of the full screen: of about 310,000 compounds, about 18,000 (5.8%) were called active. Inconclusive means that the source gave no clear call. Such entries were picked first, then a sample of the others. Calls follow the shape of the dose curve; as a rule, active = well fitted inhibition curve with a large enough effect; inconclusive = small, poorly fitted or top-dose-only effect, or another doubt; inactive = no such curve, though single readings can be large or run the other way. Potencies of inconclusive entries are left out as doubtful fits.
# Assay: Primary qHTS for delayed death inhibitors of the malarial parasite plastid, 48 hour incubation
# Conditions: P. falciparum luciferase growth in erythrocytes; series mostly up to 28.7 µM
# In short: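 Cell-based growth assay: transgenic P. falciparum expressing firefly luciferase, cultured in red cells within RPMI 1640 containing 0.5% w/v Albumax, 24 mM bicarbonate and gentamycin. A drop in luciferase activity indicates inhibition.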
# Potency is read from the fitted curve at half-maximal effect; tags tell the direction and shape of the fitted curve.
row,Compound,Potency
1,COc1ccc2c(C)cc(=S)[nH]c2c1,inactive
2,O=C(Nc1ccc(S(=O)(=O)N2CCCc3ccccc32)cc1)C1CCCO1 (stereo unspecified),"inconclusive [inhibitor, single point]"
3,Cc1cc2c(NCCc3ccccc3)ncnc2s1,inactive
4,COc1ccc(C(O)(C(C)C)C(CN2CCOCC2)c2ccc(Cl)cc2)cc1 (stereo unspecified),active: 8.28 µM
5,CCOC(=O)c1c(NC2OC(=O)c3c2ccc(OC)c3OC)sc(C(=O)OC(C)(C)C)c1C (stereo unspecified),"inconclusive [inhibitor, single point]"
6,CCOC(=O)CC/C(C)=N\N=C1\SC(CC(=O)O)C(=O)N1c1ccccc1 (stereo unspecified),"inconclusive [inhibitor, single point]"
7,COC(=O)C1=C(C(=O)OC)[C@@H]2N(Cc3ccccc3)c3ccccc3[C@@]23C[C@@H](CO)N(C(=O)NC2CCCC2)C3=N1,"inconclusive [inhibitor, single point]"
8,CCCCNC(=O)N(O)C1N(/N=C/c2cccnc2)C(=S)SC1(C)C (stereo unspecified),"inconclusive [inhibitor, partial curve, poor fit]"
9,Cc1ccc(C(C(=O)NCC2CCCO2)N(C(=O)c2snc(C(N)=O)c2N)c2ccc(C(C)C)cc2)o1 (stereo unspecified),active: 9.28 µM
10,Cn1c(/C=C/c2cccc([N+](=O)[O-])c2)c([N+](=O)[O-])c(=O)n(C)c1=O,"inconclusive [inhibitor, partial curve]"
11,O=c1oc(-c2cccc([N+](=O)[O-])c2)nc2ccccc12,inactive
12,CCN1CCCC1=O,inactive
13,COc1ccc(Cn2c(=O)[nH]c3cc(C(=O)N4CCN(c5ccccc5OC)CC4)ccc3c2=O)cc1,active: 3.29 µM
14,COc1ccc2cc(CCNC(=O)c3ccc(S(=O)(=O)N4CCCC4)cc3)c(=O)[nH]c2c1,active: 13.1 µM
15,Cc1ccc(C2NC(c3ccc(C)cc3)C([N+](=O)[O-])C(C)(C)C2[N+](=O)[O-])cc1 (stereo unspecified),"inconclusive [inhibitor, single point]"
16,O=C(CSc1ccc(-c2cccs2)nn1)Nc1ccccc1F,inactive
17,COc1ccc(-c2cc3nc(C4CCN(C(=O)OC(C)(C)C)CC4)c(C(=O)O)cn3n2)cc1,active: 1.31 µM
18,CCCN(CC(=O)Nc1ccccc1C)C(=O)c1ccc(C)c(S(=O)(=O)N2CCCCC2)c1,"inconclusive [inhibitor, single point]"
19,Cc1noc(C)c1COC(=O)CCN1c2ccccc2Sc2ccccc21,"inconclusive [inhibitor, partial curve]"
20,NS(=O)(=O)c1ccc(CCNC(=O)COC(=O)/C=C/c2ccc(OC(F)F)cc2)cc1,"inconclusive [inhibitor, partial curve, poor fit]"
21,Cc1cc(C)n(CC(C)NCc2cn[nH]c2-c2ccc(C)c(C)c2)n1 (stereo unspecified),inactive
22,O=C(CSC1=NNC(c2ccccn2)S1)Nc1cccc(Cl)c1 (stereo unspecified),"inconclusive [inhibitor, partial curve]"
23,COc1cccc(-n2c(C)nn(CCOc3ccccc3)c2=O)c1,inactive
24,O=S(=O)(NCC1(N2CCOCC2)CCCCC1)c1ccc(F)c(F)c1F,"inconclusive [inhibitor, single point]"

row,Compound,Potency
1,Cc1cc(C(=O)N/N=C/c2ccc([N+](=O)[O-])o2)c(C)o1,active: 3.7 µM
2,Cc1ccc(N(CC(=O)Nc2ccc(S(=O)(=O)N3CCOCC3)cc2)S(C)(=O)=O)cc1C,"inconclusive [inhibitor, partial curve, poor fit]"
3,CC(C)N(CCNC(=O)COc1ccc2oc3c(c2c1)CCCC3)C(C)C,inactive
4,CN(CC(=O)Nc1ccc(Cl)c(C(F)(F)F)c1)C(=O)c1cc(=O)[nH]c2ccccc12,"inconclusive [inhibitor, single point]"
5,CC(C)(C)c1ccc(C(=O)NNc2cc(N3CCCCC3)nc(N3CCCCC3)n2)cc1,active: 2.62 µM
6,Cc1cc(=O)[nH]c(N/N=C/c2c(C)nn(-c3ccccc3)c2C)n1,active: 11.7 µM
7,COc1cccc(CN2CCN(c3ccc(F)cc3)C2=O)c1,inactive
8,CC1(C)CC(=O)C2=C(C1)OC(N)=C(C#N)C2c1ccc2c(c1)OCO2 (stereo unspecified),inactive
9,CC1CC(NC(=O)c2ncn[nH]2)CC(C)(C)C1 (stereo unspecified),"inconclusive [inhibitor, full curve, poor fit]"
10,CCS(=O)(=O)Nc1cccc(C2=NN(S(=O)(=O)c3ccc(C)cc3)C(c3cccs3)C2)c1 (stereo unspecified),"inconclusive [inhibitor, single point]"
11,O=C(c1cccc(S(=O)(=O)N2CCN(c3ccc(F)cc3)CC2)c1)N1CCCC(C(F)(F)F)C1 (stereo unspecified),"inconclusive [inhibitor, partial curve, poor fit]"
12,CCN(CC(=O)Nc1cc(Cl)ccc1C)C(=O)C1CC(=O)N(Cc2ccccc2)C1 (stereo unspecified),inactive
13,CSc1cccc(NC(=O)CN2C(=O)COc3ccc(S(=O)(=O)N4CCOCC4)cc32)c1,"inconclusive [inhibitor, partial curve, poor fit]"
14,COc1ccccc1C(=O)NC(=O)CSc1nnc(SC)s1,inactive
15,O=C(NNc1ncc(C(F)(F)F)cc1Cl)c1ccc(Cl)c(Cl)c1,"inconclusive [inhibitor, single point]"
16,COc1ccccc1NC(=S)N(CCc1c(C)[nH]c2ccccc12)Cc1cccs1,"inconclusive [inhibitor, partial curve]"
17,COc1ccc(C2C3=C(CCCC3=O)Nc3c(-c4ccccc4)c(C)nn32)cc1 (stereo unspecified),"inconclusive [inhibitor, single point]"
18,COc1ccc(C(CCNCc2ccc(F)cc2)c2ccc(F)cc2)cc1 (stereo unspecified),active: 4.65 µM
19,O=C(NCc1ccccc1)c1nc(S(=O)(=O)Cc2ccccc2)ncc1Cl,inactive
20,Cc1ccc(C)c(OCCCNCc2ccccc2)c1,inactive
21,COc1cccc(CC(=O)Nc2nc(-c3ccc(OC)c(OC)c3)cs2)c1,"inconclusive [inhibitor, partial curve, poor fit]"
22,Cc1ccccc1CN1CCCOCCS1(=O)=O,"inconclusive [inhibitor, partial curve, poor fit]"
23,CCCCC(=O)NC(=S)Nc1ccccc1N1CCCCC1,"inconclusive [inhibitor, single point]"
24,COc1ccc(C(C)=O)cc1COC(=O)c1cccc(N(C)C)c1,"inconclusive [inhibitor, single point]"

row,Compound,Potency
1,Cc1ccc(S(=O)(=O)N2CCN(C(=S)NCC3CCCO3)CC2)cc1 (stereo unspecified),active: 3.7 µM
2,CC(C)(C)c1ccc(C(=O)N2CCN(c3ccc(N4CCOCC4)nn3)CC2)cc1,"inconclusive [inhibitor, single point]"
3,CCNC(=O)COc1ccc(/C=C2\COc3ccccc3C2=O)cc1OC,"inconclusive [inhibitor, partial curve, poor fit]"
4,CSC(=O)CC(=O)NC(=O)c1ccccc1,"inconclusive [inhibitor, single point]"
5,COC(=O)C(C)Oc1cc(C)cc2oc(=O)c3c(c12)CCC3 (stereo unspecified),"inconclusive [inhibitor, single point]"
6,O=C(O)CCCc1nc2ccccc2s1,inactive
7,O=C(Nc1cccc2ncccc12)C(c1ccccc1)c1ccccc1,"inconclusive [inhibitor, partial curve]"
8,O=C(CN(Cc1cccs1)C(=O)CNS(=O)(=O)c1ccc(Cl)cc1)NCC1CCCO1 (stereo unspecified),inactive
9,O=C(Cn1c(=O)c2cccn2c2ccc(F)cc21)NCCCN1CCN(c2ccccc2F)CC1,"inconclusive [inhibitor, single point]"
10,O=C(Nc1ccccc1)C1=C[C@H](C2CCCCC2)C[C@H](OCc2ccc(CO)cc2)O1,"inconclusive [inhibitor, partial curve, poor fit]"
11,COc1ccc(Cl)cc1NC(=O)CN(C)C(=O)CCSc1ccc(C)cc1,active: 11.7 µM
12,Cc1ccccc1C1CCCN(Cc2nc(C3CC3)no2)C1 (stereo unspecified),inactive
13,COc1ccccc1-c1c(C(F)(F)F)oc2c(CN(C)C)c(O)ccc2c1=O,"inconclusive [inhibitor, single point]"
14,CC(=O)c1cccc(NC(=O)CSc2nc(N3CCCCC3)nc(N3CCCCC3)n2)c1,"inconclusive [inhibitor, partial curve]"
15,O=[N+]([O-])c1ccc(NC(=S)N2CCCC2)cc1,inactive
16,Cc1cccc(NC(=O)CSc2ccc3nnc(-c4cccnc4)n3n2)c1,"inconclusive [inhibitor, single point]"
17,Cc1ccccc1OCCn1cnc2cc([N+](=O)[O-])ccc2c1=O,"inconclusive [inhibitor, single point]"
18,CCCCNC(=S)Nc1cc(S(=O)(=O)N2CCCCC2)ccc1C,inactive
19,COC(CNC(=O)c1coc2nc3ccccc3nc12)OC,"inconclusive [inhibitor, single point]"
20,CCc1c(C)c2ccc(OC(C)C(=O)NC(Cc3c[nH]c4ccc(O)cc34)C(=O)O)c(C)c2oc1=O (stereo unspecified),inactive
21,Cc1noc(C)c1COc1cccc(C(=O)Nc2ccc(C#N)cc2)c1,"inconclusive [inhibitor, single point]"
22,O=[N+]([O-])c1ccc(-c2cc(-c3ccc(Cl)cc3)n[nH]2)cc1,inactive
23,Cc1ccc(NC(=O)CSc2nc3sc(C)cc3c(=O)n2C)cc1,"inconclusive [inhibitor, partial curve, poor fit]"
